In paper PMC4336329 (PLoS ONE, 2015):
About 2,200 (0.71%) of roughly 310,000 compounds showed an effect of 50% or more. Effects have a minus sign here. Some of the results follow.

Target: human ether-à-go-go-related gene (hERG) potassium channel (human, UniProt Q12809)
Assay: primary screen, population patch clamp on CHO cells stably expressing hERG

human ether-à-go-go-related gene (hERG) potassium channel, sequence (Q12809 whole entry, looked up): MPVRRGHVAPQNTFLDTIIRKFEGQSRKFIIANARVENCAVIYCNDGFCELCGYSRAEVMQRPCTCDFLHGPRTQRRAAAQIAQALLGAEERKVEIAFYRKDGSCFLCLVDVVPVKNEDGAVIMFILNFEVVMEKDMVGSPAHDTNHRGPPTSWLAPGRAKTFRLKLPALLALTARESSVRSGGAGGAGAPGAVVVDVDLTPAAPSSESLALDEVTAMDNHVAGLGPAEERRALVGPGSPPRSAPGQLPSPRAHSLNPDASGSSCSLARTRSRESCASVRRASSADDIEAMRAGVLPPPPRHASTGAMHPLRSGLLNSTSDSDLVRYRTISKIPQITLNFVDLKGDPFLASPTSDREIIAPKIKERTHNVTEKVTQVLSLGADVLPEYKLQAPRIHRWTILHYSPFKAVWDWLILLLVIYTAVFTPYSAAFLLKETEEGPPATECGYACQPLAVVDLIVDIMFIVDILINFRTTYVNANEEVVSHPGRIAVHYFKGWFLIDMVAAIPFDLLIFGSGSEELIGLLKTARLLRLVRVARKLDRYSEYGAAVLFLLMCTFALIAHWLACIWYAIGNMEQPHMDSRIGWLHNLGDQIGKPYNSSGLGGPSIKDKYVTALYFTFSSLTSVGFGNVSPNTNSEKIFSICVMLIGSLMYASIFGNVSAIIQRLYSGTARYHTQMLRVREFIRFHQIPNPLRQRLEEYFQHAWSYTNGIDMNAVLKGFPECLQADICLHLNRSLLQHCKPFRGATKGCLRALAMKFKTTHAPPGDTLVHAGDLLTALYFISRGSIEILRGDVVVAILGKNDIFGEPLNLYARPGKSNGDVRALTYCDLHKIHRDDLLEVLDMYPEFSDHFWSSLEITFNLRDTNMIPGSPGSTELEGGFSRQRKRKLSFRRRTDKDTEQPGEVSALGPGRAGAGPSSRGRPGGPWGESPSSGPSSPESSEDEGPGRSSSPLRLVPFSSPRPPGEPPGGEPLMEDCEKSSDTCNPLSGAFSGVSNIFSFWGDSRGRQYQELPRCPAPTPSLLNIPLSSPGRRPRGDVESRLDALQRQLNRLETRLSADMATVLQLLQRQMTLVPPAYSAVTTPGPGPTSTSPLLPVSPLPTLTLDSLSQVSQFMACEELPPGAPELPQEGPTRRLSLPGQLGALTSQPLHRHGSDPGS

Point of comparison: `Cc1cc(C)c(C(=O)Cn2nc(C)c([N+](=O)[O-])c2C)cc1C`, “hERG current change (%, negative = inhibition) at 1uM” value -1.65%. Against it:
- C=CCN(CC=C)C(=O)Nc1ccc(OCC)cc1 — higher, 10.1%
- Cc1[nH]c(=O)c(Cc2ccccc2)c(O)c1C#N — higher, 12.5%
- C#Cc1cccc(C(=O)NC2CCCN(C3Cc4ccccc4C3)C2)c1 (centres unmarked) — lower, -32.4%
- CCN(CC)c1nc2ccccc2nc1C(C#N)C(=O)NCCCOC (centres unmarked) — higher, -0.057%
- CC1(C)CC2(CCO1)OC(=O)CC2C(=O)Nc1cccc2ccccc12 (centres unmarked) — higher, 17.3%
- CN(c1ccccc1)S(=O)(=O)c1cccc(NC(=O)CN2CCc3ccccc3C2)c1 — higher, 5.27%
- Cc1cc(C)n2nc(-c3ccccc3)c(-c3ccccc3)c2n1 — higher, 12.6%
- CN(CCOc1ccccc1)S(=O)(=O)c1ccccc1C#N — higher, 3.71%
- CCN(C(=O)COC(=O)c1ccccc1NC(=O)c1ccco1)C1CCS(=O)(=O)C1 (centres unmarked) — lower, -29%
- COc1cc(CN(C(=S)NCC(=O)N2CCCC2)C2CCCC2)cc(OC)c1OC — higher, 8.17%
- FC(F)(F)c1cc(-c2ccc(Cl)cc2)nc(NCc2cccnc2)n1 — higher, 6.44%
- Cc1ccnc(Nc2nc(-c3ccc(O)cc3O)cs2)c1 — higher, 9.73%
- CN1CCN(CCCN2c3ccccc3Sc3ccc(C(F)(F)F)cc32)CC1.Cl — higher, 8.15%
- CCNC(=O)NC(=O)c1csc([N+](=O)[O-])c1 — higher, 12.9%
- Cc1cc(C)c(C)c(OCCCCN(C)Cc2ccccc2)c1.O=C(O)C(=O)O — higher, 21.1%
- COc1ccc(OC)c(NC(=O)NC2CCCc3ccccc32)c1 (centres unmarked) — higher, 2.22%
- Cc1ccc(C(=O)CSc2nnc(-c3ccco3)n2CC2CCCO2)cc1 (centres unmarked) — higher, 7.46%
- Cc1cc2nccc(-c3ccc(OCCCF)cc3)n2n1 — lower, -1.78%
- COc1ccc(C(=O)NCCc2nnc3ccc(SCC(=O)N4CCCC4)nn23)cc1 — higher, 16.2%
- Cc1nn2c3ccccc3n(CC(=O)c3cccs3)c2nc1=O — higher, 7.17%
- O=C(Nc1ccccc1)Nc1ccc2ncoc2c1 — higher, 15.2%
- COc1cc([N+](=O)[O-])ccc1NC(=O)CCN1C(=O)C2C3CCC(C3)C2C1=O (centres unmarked) — higher, 8.29%
- O=S(=O)(Nc1nccs1)c1ccc(Nc2nnc(-c3ccccc3)c3ccccc23)cc1 — higher, 15.3%
- CC1CC(C)CN(S(=O)(=O)c2ccc(C(C)(C)C)cc2)C1 (centres unmarked) — higher, 4.82%
- CC1(C)CC(NC(=O)C(C)(C)Oc2ccc(Cl)cc2)CC(C)(C)N1 — higher, 15%
- CC1CCCCN1C(=O)c1ccc(NC(=O)c2ccccc2Cl)cc1 (centres unmarked) — higher, 14.2%
- O=C(OCC(=O)c1cccs1)C1=COCCO1 — higher, 12.7%
- O=C(CSc1nnc(CNC(=O)c2c(F)cccc2Cl)o1)Nc1ccc2c(c1)OCCO2 — higher, 16.9%
- CCN1CCN(c2ccc(S(=O)(=O)N3CCCC3)cn2)CC1 — higher, 12.8%
- O=c1oc2ccccc2cc1-c1ccc(O)cc1 — higher, 13.9%
- Cc1ccc(OCC(=O)NC(=S)Nc2ccc(Br)cn2)cc1C — higher, 3.96%
- Cc1ccc(NC(=O)CCC(=O)NNC(=O)C(c2ccccc2)c2ccccc2)c(C)c1 — higher, 14.2%
- O=C(c1cc2cc(Cl)ccc2[nH]1)N1CCC2(CC1)OCCO2 — higher, 2.47%
- CC1(c2ccc(OC(F)F)cc2)NC(=O)N(CC(=O)Nc2ccc(S(N)(=O)=O)cc2)C1=O (centres unmarked) — higher, 17.9%
- Cc1ccc(OCc2nnnn2-c2ccccc2)cc1 — higher, 3.75%
- Cc1cccc(-c2cc3nc(-c4ccccc4)cc(=O)n3[nH]2)c1 — higher, 10.9%
- O=C(CSc1nnc2ccccn12)NC(=O)NC1CCCC1 — higher, 11.8%
- COc1cc2c(cc1OC)C(c1ccc(Cl)cc1)CC(=O)N2 (centres unmarked) — higher, 14.9%
- CCOc1ccccc1NC(=O)COC(=O)Cc1ccc(-c2ccccc2)cc1 — higher, 5.37%
- CC(C)NC(=O)c1ccc(S(=O)(=O)N(C)C)cc1 — higher, 4.29%
- Cc1ccc(S(=O)(=O)/N=C(\CN2CCOCC2)N2CCCC2)cc1 — higher, 12.1%
- Cc1ccc(OCC(=O)Nc2ccc3oc(=O)ccc3c2)c(C)c1 — higher, 2.93%
- CCOc1cc(N2CCOCC2)c(OCC)cc1NC(=O)CN1CCSC1=O — higher, 1.68%
- COc1ccc(-n2c(SCc3cn4c(C)cccc4n3)nc3ccccc3c2=O)cc1OC — higher, 4.37%
- COc1ccc(CCNC(=O)CN(C)S(=O)(=O)c2ccc3nc(C)sc3c2)cc1OC — higher, 13%
- O=C(CNC(=O)c1ccc(Br)o1)NCC(=O)OCc1ccccc1 — higher, 1.1%
- COc1ccc(N(C(=O)c2cccc([N+](=O)[O-])c2)S(=O)(=O)c2ccc3c(c2)n(C)c(=O)n3C)cc1 — lower, -12%
- CCCn1c(SCC(=O)NNC(=O)c2ccccc2)nnc1-c1cccnc1 — higher, 5.05%
- C=CCNC(=O)c1cc2c(=O)n3ccccc3nc2s1 — higher, 14.1%
- CCOC(=O)c1sc(=NC(=O)c2cccc(Br)c2)n(C)c1C — higher, 26.1%
- C#Cc1ccc(CN2CCN(Cc3ccsc3)C(CCO)C2)cc1 (centres unmarked) — higher, 9.5%
- Cc1cccc(-n2[nH]c(C)c(C=Nc3ccc4[nH]c(=O)[nH]c4c3)c2=O)c1 — higher, 3.23%
- CN1CCN(C(=S)NCCc2ccccc2)CC1.O=C(O)C(=O)O — higher, 0.335%
- CN(Cc1ccccc1)C(=O)CCn1c(=O)oc2ccccc21 — lower, -2.35%
- O=C(COC(=O)C1CCCO1)Nc1cccc(C(F)(F)F)c1 (centres unmarked) — higher, 15.2%
- CN(c1ccccc1)S(=O)(=O)c1cccc(NC(=O)Nc2ccc(Cl)cc2C#N)c1 — lower, -4.02%
- NC(=O)COC(=O)c1ccc2c(c1)C(=O)N(Cc1ccco1)C2=O — higher, 9.91%
- CCCS(=O)(=O)N1CCC(C(=O)N2CCC3(CC2)OCCO3)CC1 — lower, -13.4%
- COc1ccc(C(C(=O)NC2CCCCC2)N(C(=O)c2ccccn2)c2cccnc2)c(OC)c1 (centres unmarked) — higher, 20.3%
- COc1ccc(CNC(=O)C2CCC(=O)N(CCCN3CCCC3=O)C2)c(OC)c1 (centres unmarked) — higher, 8.88%
- CC(C)(C)NC(=S)NNC(=O)[C@H]1C[C@@H]1c1ccccc1 — higher, 11.6%
- O[C@@H]1CN(Cc2ccccc2Cl)CC[C@H]1N1CCOCC1 — higher, 14.4%
- CCn1nc(NC(=O)CC(C)C)c2cc3ccc(C)cc3nc21 — higher, 22.7%
- NC(=O)NCc1ccccc1Cl — higher, 18.4%
- CCc1c(C)nc(SCC(=O)Nc2nc(-c3ccc(OC)cc3)cs2)[nH]c1=O — higher, 7.13%
- Cc1ccc(S(=O)(=O)Nc2cccc(-c3cn4ccsc4n3)c2)cc1 — higher, 13.6%
- Cn1cccc1Cc1nnc(SCC(=O)Nc2ccc3c(c2)OCCO3)n1-c1ccc(F)cc1 — higher, 5.74%
- CC(C)NCC(=O)C12CC3CC(CC(C3)C1)C2 — higher, 8.46%
- CCC(Sc1nc2ccncc2[nH]1)C(=O)Nc1cc(Cl)ccc1C (centres unmarked) — lower, -8.86%
- CN1CCN(C(=O)C2=C[C@H](c3coc4ccccc4c3=O)C[C@H](OCc3ccc(CO)cc3)O2)CC1 — higher, 3.49%
- COc1ccc(C(=O)c2c(N)sc3c2CCN(C(=O)OC(C)(C)C)C3)cc1 — higher, 13.1%
- COc1ccc(OC)c(NC(=O)[C@@H]2CCCN2C(=O)c2cccs2)c1 — higher, 11.3%
- CC(=O)N1CCCc2cc(S(=O)(=O)N3CCCC(C(=O)NCc4ccc(Cl)cc4)C3)ccc21 (centres unmarked) — higher, 14.1%
- CCOC(=O)/C=c1\s/c(=C(\C#N)C(N)=O)n(-c2ccccc2)c1=O — higher, 7.02%
- COc1cccc2cc(C(=O)N3CCN(C(=O)c4ccco4)CC3)c(=O)oc12 — higher, 10.1%
- CN(CCNC(=O)C1CCC(=O)N(Cc2cccc(F)c2)C1)CCc1ccccc1 (centres unmarked) — lower, -14.8%
- Cc1ccc(OCc2nnc(SCC(=O)Nc3ccc(N4CCOCC4)cc3)o2)cc1 — higher, 9.76%
- COc1ccc(Br)cc1CNCCc1ccc2c(c1)OCO2 — lower, -4.27%
- COc1ccc(S(=O)(=O)N2CCN(c3cccc(C)c3C)CC2)cc1 — higher, 4.69%
- CCC(=O)Nn1c(C)nnc1C — higher, 9.41%
- O=C(CSc1ncn[nH]1)NCCc1ccccc1 — higher, 3.9%
- O=C(C1CCN(C2CC(=O)N(c3cccc(Cl)c3)C2=O)CC1)N1CCCC1 (centres unmarked) — higher, 14%
- COc1ccc(CCNS(=O)(=O)c2csc(C(N)=O)c2)cc1OC — higher, 16.3%
- CS(=O)(=O)c1cccc(NC(=O)C2CC2)c1 — higher, 6.54%
- COc1ccccc1C(=O)NNC(=O)c1ccc(Br)cc1 — higher, 12.3%
- CCNC(=O)CCS(=O)(=O)c1ccc2ccccc2c1 — higher, 10.5%
- COc1ccc(C(=O)Nc2cc(-c3nn4c(C)nnc4s3)ccc2C)cc1 — lower, -10.1%
- Cc1cc(NC(=O)CCC(=O)N(C2CC2)C(C(=O)NC(C)(C)C)c2ccccc2Cl)no1 (centres unmarked) — higher, 12.6%
